# The list shows a part of the results. These are enrichments in a pooled selection; single values are uncertain. Each score is taken over the longer molecules that contain the sequence shown.
# Tests used:
# Assay in all cases: 6-mer SELEX enrichment z-score vs GST control; IMP3 is the RNA-binding protein IGF2BP3; higher = more enriched by binding
# [1] = test system: IMP3 RRM1-2; conditions: construct: RRM1-2 (1-163); SELEX round: R2
# Procedure: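 SELEX-seq with GST-tagged IMP3 RRM1-2 (Met1-Asn163) and an N40 RNA pool, round 2. 6-mer enrichment z-score normalised to GST SELEX. RNA written as DNA (T = U).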
# [2] = target: IMP3 full-length (UniProt O00425); conditions: construct: FL IMP3 (1-579); SELEX round: R4
# Sequence of UniProt O00425 (O00425 whole entry): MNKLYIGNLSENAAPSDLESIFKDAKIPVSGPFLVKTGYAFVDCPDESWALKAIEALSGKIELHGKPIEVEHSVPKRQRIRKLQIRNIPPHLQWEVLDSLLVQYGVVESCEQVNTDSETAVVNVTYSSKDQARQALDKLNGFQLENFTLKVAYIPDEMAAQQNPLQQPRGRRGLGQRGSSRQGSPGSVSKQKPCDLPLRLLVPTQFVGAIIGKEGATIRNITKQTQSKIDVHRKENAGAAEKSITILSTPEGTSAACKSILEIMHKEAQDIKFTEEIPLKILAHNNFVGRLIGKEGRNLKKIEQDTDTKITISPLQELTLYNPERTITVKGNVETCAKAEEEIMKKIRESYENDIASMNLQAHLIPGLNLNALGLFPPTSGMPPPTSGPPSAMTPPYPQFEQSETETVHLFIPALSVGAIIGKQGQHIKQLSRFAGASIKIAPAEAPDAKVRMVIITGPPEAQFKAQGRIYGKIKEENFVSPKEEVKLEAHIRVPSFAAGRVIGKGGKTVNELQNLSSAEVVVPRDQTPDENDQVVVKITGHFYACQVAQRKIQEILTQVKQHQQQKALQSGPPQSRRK
# Procedure: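 SELEX-seq with GST-tagged full-length IMP3 and an N40 RNA pool, round 4. Each 6-mer is scored as an enrichment z-score of sequence tags containing it, normalised to the matching GST SELEX round. RNA written as DNA (T = U).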
# [3] = test system: IMP3 KH1-2; conditions: construct: KH1-2 (164-376); SELEX round: R4
# Sequence of IMP3 KH1-2 (chain, as listed by the source): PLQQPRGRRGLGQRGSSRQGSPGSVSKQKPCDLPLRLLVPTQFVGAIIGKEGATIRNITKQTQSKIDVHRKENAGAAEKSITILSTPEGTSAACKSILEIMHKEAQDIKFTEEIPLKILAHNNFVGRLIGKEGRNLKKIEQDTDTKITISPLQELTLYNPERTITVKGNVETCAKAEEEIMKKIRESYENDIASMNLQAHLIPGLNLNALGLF
# Procedure: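 SELEX-seq with GST-tagged IMP3 KH1-2 (Pro164-Phe376) and an N40 RNA pool, round 4 (stringent 300/600 mM KCl washes). 6-mer z-score of sequence-tag enrichment normalised to the corresponding GST SELEX round; RNA k-mers written as DNA (T for U).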
# [4] = test system: IMP3 KH3-4; conditions: construct: KH3-4 (377-579); SELEX round: R4
# Sequence of IMP3 KH3-4 (chain, as listed by the source): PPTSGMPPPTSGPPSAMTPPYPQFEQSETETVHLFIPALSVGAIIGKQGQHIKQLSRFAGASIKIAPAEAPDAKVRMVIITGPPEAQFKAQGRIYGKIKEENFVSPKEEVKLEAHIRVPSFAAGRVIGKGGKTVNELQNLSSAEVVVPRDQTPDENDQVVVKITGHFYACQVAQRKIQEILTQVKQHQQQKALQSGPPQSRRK
# Procedure: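 SELEX-seq with GST-tagged IMP3 KH3-4 (Pro377-Lys579) and an N40 RNA pool, round 4. 6-mer z-score of sequence-tag enrichment normalised to the corresponding GST SELEX round; RNA k-mers written as DNA (T for U).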
# Sequence of IMP3 RRM1-2 (chain, as listed by the source): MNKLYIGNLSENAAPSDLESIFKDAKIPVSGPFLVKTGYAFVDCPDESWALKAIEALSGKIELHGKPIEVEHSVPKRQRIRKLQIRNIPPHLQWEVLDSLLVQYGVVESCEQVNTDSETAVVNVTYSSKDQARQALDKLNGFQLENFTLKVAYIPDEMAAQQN
Sequence,6-mer SELEX enrichment z-score [1],6-mer SELEX enrichment z-score [2],6-mer SELEX enrichment z-score [3],6-mer SELEX enrichment z-score [4]
CACTTC,1.31,0.78,1.01,0.119
GATGGG,-0.019,0.29,0.896,1
ATATCA,1.77,1.74,2.07,2.04
GCATCG,0.57,1.82,0.397,0.083
TACGGC,0.156,1.69,1.05,1.53
TTTATT,0.44,0.473,1.27,1.87
AGGGAT,-0.053,0.169,0.612,0.812
ACACCG,-0.045,0.671,0.176,-0.898
CTTGGA,0.034,-0.255,-0.488,-0.549
TCTTAG,0.403,0.002,-0.077,0.067
GGTTAA,-0.034,-0.257,-0.203,0.132
AAGTTT,-0.045,-0.406,-0.251,0.06
CCACGT,-0.244,-0.398,-0.867,-1.01
GCTAGA,-0.209,-0.296,-0.306,-0.097
CTTTTC,0.43,0.326,0.887,0.581
GCTGGT,0.301,0.093,-0.064,-0.019
CTCTTG,0.472,-0.288,-0.555,-0.483
GCAAGT,0.124,0.287,-0.018,0.144
CGGCGC,0.379,1.29,0.006,0.085
ATGCCC,-0.611,-1.32,-1.16,-1.73
GACATT,0.261,0.464,0.2,0.253
AAGTGC,-0.393,-0.301,-0.354,-0.216
CTACGA,-0.618,-0.863,-0.765,-0.863
CTCACC,0.199,-0.589,-0.621,-1.29

Sequence,6-mer SELEX enrichment z-score [1],6-mer SELEX enrichment z-score [2],6-mer SELEX enrichment z-score [3],6-mer SELEX enrichment z-score [4]
TCCAGC,0.167,-0.183,-0.692,-0.971
CTACGC,0.014,-0.267,-0.171,-0.377
TACATT,1.15,1.38,2.01,1.92
CGGCCA,0.065,2.65,1.96,2.49
GCTTAT,0.245,0.134,0.399,0.623
TCCGCT,0.021,0.247,0.675,0.084
GGGCGA,-0.145,0.143,-0.518,-0.45
TATGCC,-0.29,-0.473,-0.138,-0.251
GGCTTA,0.351,0.363,0.295,0.934
CCATTT,0.394,0.38,0.764,0.566
CTACCC,-0.606,-1.07,-1.1,-1.53
CCCTGG,-0.374,-0.526,-0.67,-0.97
TCAAGA,0.148,-0.176,-0.632,-0.467
GATCCT,-0.186,-0.519,-0.26,-0.339
AGGACC,0.545,-0.419,-0.635,-0.834
CTCCTA,0.017,-0.262,0.211,-0.033
TCAGTG,0.595,0.477,-0.073,-0.026
GGAAGC,-0.427,-0.191,-0.213,-0.276
GACATA,0.195,0.797,0.883,1.24
CATGAC,0.97,0.888,0.673,0.295
TCCCGT,-0.176,-0.191,-0.363,-0.582
GTCGTT,0.386,0.12,-0.039,0.088
ACTTCT,0.281,0.051,0.578,0.302
AAGTCA,-0.044,0.139,-0.073,0.155

Sequence,6-mer SELEX enrichment z-score [1],6-mer SELEX enrichment z-score [2],6-mer SELEX enrichment z-score [3],6-mer SELEX enrichment z-score [4]
TGAAGT,-0.396,-0.323,0.079,0.334
AGCCAA,-0.613,-0.971,-1.3,-1.51
TACTTT,0.248,0.069,0.734,0.846
GGCGGG,0.082,1.18,0.966,0.665
TGATTC,0.049,0.019,0.384,0.523
CGATTC,-0.08,-0.123,-0.115,-0.303
CGCTTA,0.001,-0.022,0.29,0.254
TAAATA,-0.878,-0.363,1.17,2.35
CGTCTC,0.593,0.507,-0.089,-0.032
TTTTGG,0.441,-0.015,-0.042,0.158
ATCCAG,0.127,-0.177,-0.421,-0.608
TTCCGA,-0.363,-0.615,-0.482,-0.801
TTCTGA,-0.033,-0.013,0.402,0.321
TTTGTA,0.229,-0.083,0.161,0.52
CTACAT,1.01,1.08,–,0.995
TCGCCG,-0.055,0.306,–,-0.417
GGCACA,1.06,–,2.7,–
CGATCG,-0.246,–,-1.17,-1.15
ACCCAG,-0.966,–,-2,-2.38
ACGGCA,0.47,–,1.72,1.98
GCCCTA,-0.434,–,-0.698,-0.889
ATACCC,-0.57,–,-1.34,-1.87
ACAAAT,0.151,0.576,–,2.04
TAGGAG,0.051,–,0.362,0.619

Sequence,6-mer SELEX enrichment z-score [1],6-mer SELEX enrichment z-score [2],6-mer SELEX enrichment z-score [3],6-mer SELEX enrichment z-score [4]
TGTCGA,0.062,–,-0.715,-0.542
TGGCCA,-0.018,0.51,–,0.612
TTATAG,0.135,–,0.642,1.2
CACTGC,0.693,0.739,–,-0.175
TGAACC,-1.14,-1.29,–,-1.23
GATGAC,-0.952,–,0.086,0.163
TGACCC,-0.994,-1.36,–,-1.72
TTTGCA,0.245,0.353,–,0.641
CTTCAG,0.772,–,0.141,0.002
TGGCGA,-0.037,0.163,–,0.048
GACGGT,-0.232,-0.081,–,-0.2
CTTTCC,0.082,-0.162,–,0.102
TCCAGT,0.117,–,0.173,–
CTTTTG,0.25,-0.098,–,0.194
GCTTAA,-0.165,-0.317,–,0.463
CTGTAT,0.128,0.079,–,0.517
CTCCTC,0.232,-0.136,–,-0.404
CCGAAG,-1.33,–,-1.27,-1.44
GCTTTA,0.14,–,0.45,–
ATACAT,1.69,2.34,–,3
GTTAGT,0.347,0.017,–,0.231
CACATA,3.2,3.22,–,3
GTCCAT,0.285,0.601,–,0.344
CTGAGT,-0.202,-0.31,–,-0.345

Sequence,6-mer SELEX enrichment z-score [1],6-mer SELEX enrichment z-score [2],6-mer SELEX enrichment z-score [3],6-mer SELEX enrichment z-score [4]
TAGATA,-0.414,-0.141,–,1.19
AAAATG,-2.24,-2.04,-0.353,1.25
ACCTTT,-0.173,-0.497,–,-0.097
CCTTTC,0.191,–,0.447,-0.021
TTGACG,-0.37,-0.651,–,-0.775
TAAATC,-0.079,–,0.448,–
GTTGCG,–,-0.247,–,-0.291
TAAATT,–,–,1.04,1.94
CTGGTT,–,-0.03,-0.127,-0.05
GTGATA,–,-0.209,0.33,0.766
GCCAAC,–,-0.05,-0.613,-1.04
TTGTCG,–,0.287,-0.005,0.105
CATACA,–,–,–,2.22
AACATA,–,2.11,–,–
ACTGAG,-0.674,–,–,-1.04
TCAGGC,–,1.33,0.323,–
AACCAG,-0.132,–,–,-0.849
AGGAAG,-0.687,–,0.789,0.959
GTTAAC,–,-0.608,-0.611,-0.469
CACGTA,–,–,-0.438,–
TCGGCA,0.474,–,–,1.19
GCATGC,–,1.06,0.404,0.197
CCATAC,–,0.348,0.589,–
TCCTTT,–,0.177,1.06,0.839

# From the supplement of paper PMC6531468
